Measured values: PubChem BioAssay AID493208 (National Center for Advancing Translational Sciences (NCATS), 2011)
In all, about 44,000 compounds went through this assay and about 340 (0.77%) were called active. Inconclusive results (about 5%) are left out. The call rests on the fitted dose curve; in most records, active means well fitted inhibition curve with a large enough effect; inconclusive means small, poorly fitted or top-dose-only effect; inactive means flat fitted curve, though single readings scatter. Some of the results follow.

test: Acumen qHTS Assay for Inhibitors of the mTORC1 Signaling Pathway in MEF (Tsc2-/-, p53-/-) Cells: Sytravon; conditions: phospho-rpS6 immunofluorescence/PI, 24 h; series mostly up to 38.3 µM; activity change, negative = inhibition: at the top concentration;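 further: plate controls were DMSO for no effect and rapamycin for full effect; nearly all actives have a fitted effect of over 50% in size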
How it was run: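 Readout is phospho-S6 Alexa 488 signal normalized to PI per well, reported as % active cells with thresholds set from rapamycin (7.5 nM) and DMSO controls. Cells: Tsc2-/-, p53-/- MEFs, 24 hrs compound at 37 C; PI cell number serves as viability.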

Activity change, negative = inhibition, inactive:
Cc1c(C(=O)Nc2ccc(F)cc2F)sc2nc3n(c(=O)c12)N=C(c1ccccc1)CS3 0.549%, CC(Sc1oc(-c2cccs2)nc1S(=O)(=O)c1ccccc1)c1ccccc1 (configuration not stated) -6.2%, Cn1nccc1C(=O)NCc1ccc2c(c1)CCN2C(=O)c1ccc(Cl)cc1 -7.46%, O=C1c2ccccc2-c2onc3c(NCCO)cc(NC4CCCCC4)c1c23 3.33%, COc1ccc(C(CNC(=O)COc2cc(C)cc(C)c2)N2CCOCC2)cc1 (configuration not stated) 1.25%, CCc1ccc(Oc2c(C(F)(F)F)oc3c(CN4CCCC(C)C4)c(O)ccc3c2=O)cc1 (configuration not stated) 18.1%, COc1ccc(N2CCN(c3csc4ccccc4c3=O)CC2)cc1 7.11%, CCc1ccc(NC(=O)c2nn(-c3ccc(OC)cc3)c(=O)c3c2c2ccccc2n3C)cc1 -4.45%, CCCCOc1ccc(Cn2c(=O)sc3ccccc32)cc1 0.805%, CC(CNC(=O)CCS(=O)(=O)c1cc2c(cc1Cl)NC(=O)CO2)c1ccccc1 (configuration not stated) 3.59%, CCOC(=O)c1ccccc1NC(=O)CCc1nc(-c2ccc(C)cc2)no1 0.0571%, CCc1ccccc1NC(=O)C1CCCN(c2cnccn2)C1 (configuration not stated) -7.13%, O=C(Nc1cccc(NC(=O)c2ccccc2Cl)c1)c1cccc(Br)c1 -3.12%, Cc1cc(C)cc(NC(=O)C(=O)NCC(c2cccnc2)N2CCc3ccccc32)c1 (configuration not stated) 4.35%, COc1cccc(C(=O)c2sc(Nc3ccc(F)c(Cl)c3)nc2N)c1 1.52%, Cn1c(=O)c2sccc2n2c(CCC(=O)Nc3ccc(F)cc3)nnc12 6.47%, COc1ccc(OC)c(-c2noc(N3CCN(c4cc(Cl)ccc4C)CC3)n2)c1 -15.4%, Cc1ccc(C)c(NC(=O)CSc2nnc(C)n3c2cc2occc23)c1 -3.29%, CCC1CCCCN1CCCNC(=O)c1ccc2c(c1)sc1nc(-c3ccc(F)cc3)cn12 (configuration not stated) 1.48%, O=S(=O)(Nc1cccc(-c2ccc(N3CCOCC3)nn2)c1)c1cc(C(F)(F)F)ccc1Cl -8.06%, COc1ccccc1NC(=O)CN1CCN(CC(=O)Nc2ccc(F)c(F)c2)CC1 -8.98%, COC(=O)c1ccc(Cl)cc1NC(=O)Nc1nnc(N(C)Cc2ccccc2)s1 -13.6%, CCC(C(=O)OC)n1nnc2sc(-c3ccccc3)cc2c1=O (configuration not stated) -11%, CCOC(=O)c1ccc(CN(Cc2ccc(Br)cc2)S(=O)(=O)c2cccc(C(F)(F)F)c2)cc1 13.5%, Cc1ccc(N2C(=O)CS(=O)(=O)C23C(=O)N(Cc2ccccc2F)c2ccccc23)cc1Cl (configuration not stated) -16.1%, O=C(COc1ccccc1Cl)Nc1ccccc1OCc1cc(=O)n2ccccc2n1 3.45%, CN(c1ccccc1)C(CNS(=O)(=O)c1ccccc1)c1ccccc1 (configuration not stated) -11.7%, O=C(CN1C(=O)C2CCCCN2c2ccc(C(=O)N3CCCC3)cc21)NCc1ccccc1F (configuration not stated) -11.2%, CCCCN(CC)CCNc1ncnc2onc(-c3ccc(Cl)cc3)c12 -1.24%, CC(C)COc1ccc(Nc2ncnc3ccc(Br)cc23)cc1 -10.5%, Cc1cccc(NC(=O)NC2COc3ccccc3C2)c1C (configuration not stated) 5.38%, CNS(=O)(=O)c1cn(CC(=O)Nc2cccc(C(F)(F)F)c2)cc1S(=O)(=O)NC 0.868%, COC(=O)c1sccc1S(=O)(=O)N(CC(=O)NCc1ccc(F)cc1)c1ccc(C)c(C)c1 -0.118%, CNS(=O)(=O)c1cn(CC(=O)N2CCN(c3ccc(C)cc3C)CC2)cc1S(=O)(=O)NC 0.675%, CCc1ccc(CNC(=O)C(CC)n2nc(C)c3c(C)n(-c4ccccc4)nc3c2=O)cc1 (configuration not stated) -0.555%, CCCNc1ccc(-c2nc(-c3ccco3)no2)cc1[N+](=O)[O-] -1.44%, Cc1cc(S(=O)(=O)n2ccnc2C(C)C)cc([N+](=O)[O-])c1C 7.07%, COc1ccc(CNc2nc(-c3ccco3)nn2C(=O)CC(C)C)cc1 -5.58%, Cc1ccc(CCNC(=O)c2ccc(CNS(=O)(=O)c3ccc(C)cc3)cc2)cc1 1.89%, Cc1ccc(Cl)cc1N1CCN(C(=O)c2cn(CC(C)C)c(=O)c3c2c2ccccc2n3C)CC1 -13%, CCOC(=O)c1nc(Nc2ccc(Cl)cc2)c2c(C)noc2n1 3%, O=C(Nc1cc(C(F)(F)F)ccc1Cl)c1ccc2c(c1)CCN2S(=O)(=O)c1ccccc1 -10.5%, COc1ccc(N2CCN(C(=O)c3ccc4c(c3)N(Cc3cc(C)ccc3C)C(=O)c3ccccc3S4=O)CC2)cc1 (configuration not stated) -9.07%, Cc1cn2c(=O)cc(COc3cccc(NC(=O)c4ccccc4Cl)c3)nc2s1 -14.7%, COc1cccc(N2CC(NC(=O)C3CCCCC3)CC2=O)c1 (configuration not stated) 6.09%, CC(=O)c1c(C)oc2ccc(NS(=O)(=O)c3ccc(C(C)C)cc3)cc12 -24.7%, Cc1cc(C)c(Cn2c(=O)n(-c3ccccc3Cl)c(=O)c3c(C)c(C(=O)N(C)C)sc32)c(C)c1 -2.97%, COc1ccc(C(=O)Nc2nnc(S(=O)(=O)N3CCN(c4ccc(C)cc4)CC3)s2)cc1 -2.29%, Cc1ccccc1C(=O)Nc1cccc(-c2cn3cccnc3n2)c1 0.61%, COc1ccc(-c2cc3nc(C)c(CCC(=O)Nc4ccc(F)cc4F)c(C)n3n2)c(OC)c1 -0.204%, COc1cccc(-c2cc(C(=O)Nc3ccc4c(c3)OCO4)no2)c1 -2.81%, CCOc1ccc(C(=O)Nc2ccc(C(=O)OCc3cc(=O)n4nc(CC)sc4n3)cc2)cc1 1.21%, COC(=O)c1ccc(NC(=O)N2CCC(CN3CCc4ccccc4C3)CC2)cc1 1.87%, COc1ccc(NC(=O)CSc2ccc(-c3cccs3)nn2)cc1 -1.98%, COc1ccc(/C=C/C(=O)N2CCC(c3nc4ccccc4o3)CC2)cc1 1.21%, CCOc1ccc(N(CC)S(=O)(=O)N2CCCC(C(=O)Nc3ccc(NC(C)=O)cc3)C2)cc1 (configuration not stated) -9.74%, CCS(=O)(=O)c1nc(S(=O)(=O)c2ccc(C)cc2)c(NCc2ccc(Cl)cc2)s1 -9.39%, CCOC(=O)c1ccc(NS(=O)(=O)c2cn(C)c(C)n2)cc1 -0.0286%, Cc1ccc(S(=O)(=O)N2CCCc3cc(NC(=O)c4ccc(F)c(F)c4)ccc32)cc1 14.9%, COc1cccc(C(=O)Nc2cc(-c3ccccc3)nn2-c2ccccc2)c1 -1.1%, CCOc1ccc(-c2c(C)nn3c(-c4ccccc4)c(C(=O)NCCOC)cnc23)cc1OCC 2.02%, CCOc1ccc(NC(=O)Cn2cc(C(=O)c3ccc(OCC)cc3)c(=O)c3cc4c(cc32)OCCO4)cc1 0.947%
